Measurements: PMC6919601, “Identification of Plasmodium dipeptidyl aminopeptidase allosteric inhibitors by high throughput screening” (PLoS ONE, 2019)
“And” between values parts separate entries of the source, which are not always exact repeats. Equal values may be shown once. The campaign covered roughly 110,000 compounds. About 230 (0.21%) showed an effect of 50% or more. The list shows a part of the results.
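Further: 30 min substrate incubation versus DMSO and 10 µM JCP410 controls.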

The compounds below were run against DPAP1 (Plasmodium falciparum, UniProt Q8IIJ9) (assay: primary screen, percent inhibition; read by cleavage of a fluorogenic dipeptide substrate; higher = more effect of the substance).
DPAP1, sequence (Q8IIJ9 whole entry, looked up): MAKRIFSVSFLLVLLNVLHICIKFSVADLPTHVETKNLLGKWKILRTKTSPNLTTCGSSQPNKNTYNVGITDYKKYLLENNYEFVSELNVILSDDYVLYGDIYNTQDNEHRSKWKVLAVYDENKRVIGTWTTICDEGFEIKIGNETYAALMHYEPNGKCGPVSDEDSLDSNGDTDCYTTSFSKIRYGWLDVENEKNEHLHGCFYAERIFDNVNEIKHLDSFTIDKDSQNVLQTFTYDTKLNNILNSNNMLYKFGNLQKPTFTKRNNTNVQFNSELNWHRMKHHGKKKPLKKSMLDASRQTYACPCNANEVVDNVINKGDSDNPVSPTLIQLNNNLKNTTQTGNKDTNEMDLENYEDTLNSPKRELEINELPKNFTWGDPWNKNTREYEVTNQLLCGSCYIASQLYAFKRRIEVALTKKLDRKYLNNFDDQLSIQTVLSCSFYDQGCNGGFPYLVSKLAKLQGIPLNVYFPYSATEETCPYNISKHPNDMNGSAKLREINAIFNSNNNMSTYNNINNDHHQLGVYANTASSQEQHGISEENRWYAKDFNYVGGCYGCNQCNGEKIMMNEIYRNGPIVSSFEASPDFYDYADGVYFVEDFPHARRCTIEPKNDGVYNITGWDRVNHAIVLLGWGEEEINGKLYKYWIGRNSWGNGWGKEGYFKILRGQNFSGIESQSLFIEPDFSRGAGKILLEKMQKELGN
Parameters: species or system P. falciparum D10 trophozoite lysates; single well
For `CCCNC(=O)CS(=O)(=O)Cc1nc(-c2ccccc2C)oc1C`, the “% Inhibition @ 10 uM” value was -1.89%. With `COc1cc(C(=O)Nc2nc3c(s2)C(=O)CC(C)(C)C3)cc(OC)c1OC` the “% Inhibition @ 10 uM” value was 0.565%. `C=CCn1c(SCC(=O)Nc2cc(C)on2)nc2sc(-c3ccccc3)cc2c1=O` was tested, and the “% Inhibition @ 10 uM” value was -3.46%. With `O=C(O)c1cc(-c2ccc(O)c(O)c2)nc2[nH]nc(-c3ccc(F)cc3)c12` the “% Inhibition @ 10 uM” value was 2.33%. For `CCO/C(O)=C1/C(C)=Nc2nc3ccccc3n2C1c1ccc(SC)cc1` (stereo not shown), the “% Inhibition @ 10 uM” value was 3.32%. In the case of `CCOc1ccc(CN2C(=O)CCC2(C)C(=O)NC2CCCC(C)C2C)cc1OC` (stereo not shown), the “% Inhibition @ 10 uM” value is reported as 0.387%. `Cc1oc2ccc(O)c(CN3CC4(C)CC3CC(C)(C)C4)c2c1C(=O)NC1CCCC1` (stereo not shown) was tested, and the “% Inhibition @ 10 uM” value was 2.14%. `COc1ccc(S(=O)(=O)N2CCC(NC(=O)NCc3cccnc3)CC2)cc1` was tested, and the “% Inhibition @ 10 uM” value was 5.43%. `N#C/C(=C\c1cccn1-c1nnc(-c2ccccc2)s1)C(=O)NCc1ccco1` was tested, and the “% Inhibition @ 10 uM” value was 1.9%. `C=CCO/C(O)=C1/C(C)=Nc2ncnn2C1c1ccccc1C` (stereo not shown) was tested, and the “% Inhibition @ 10 uM” value was 0.0842%. In the case of `COc1ccc(CCC(=O)Nc2noc3ccccc23)cc1`, the “% Inhibition @ 10 uM” value is reported as 5.29%. For `Cc1cc(CNC(=O)c2nc(-c3cccs3)no2)c2ccccc2n1`, the “% Inhibition @ 10 uM” value was 4.41%. In the case of `CCC1CCC(C(=O)NC(C(=O)NCCCN2CCCCC2C)C(C)C)CC1` (stereo not shown), the “% Inhibition @ 10 uM” value is reported as -6.5%. With `COc1ccc(/C=C2\CCCC3=C2Nc2ncnn2C3c2ccc(OC)cc2)cc1` (stereo not shown) the “% Inhibition @ 10 uM” value was 6.96% and 10.4%. For `COc1ccccc1-c1nc2c(c(SC)n1)Cc1c(CO)cnc(C)c1O2`, the “% Inhibition @ 10 uM” value was 2.75%. With `CSc1nnc(Nc2ccccc2)n1-c1ccccc1` the “% Inhibition @ 10 uM” value was 2.66%. In the case of `O=C(N1CCCCC1)C1(c2ccccc2)CCOCC1`, the “% Inhibition @ 10 uM” value is reported as 0.214%. With `Cc1cccc(NC(=O)C2CCCN(S(=O)(=O)c3ccc4nc(O)ccc4c3)C2)n1` (stereo not shown) the “% Inhibition @ 10 uM” value was -1.39%. In the case of `O=C(C1CCC(=O)N1Cc1ccccc1Cl)N1CCC2(CC1)OCCO2` (stereo not shown), the “% Inhibition @ 10 uM” value is reported as -3.58%. In the case of `CCCN1CCN(c2c(-c3ccccc3)c(=O)c2=O)CC1`, the “% Inhibition @ 10 uM” value is reported as -0.825%. In the case of `COC(=O)c1ccc(-c2nc(-c3cc(Cl)ccc3OC)no2)cc1`, the “% Inhibition @ 10 uM” value is reported as 4.18%. `CC1(C)CC2=Nc3nc(C(F)(F)F)nn3C(c3ccccc3)C2=C(O)C1` (stereo not shown) was tested, and the “% Inhibition @ 10 uM” value was 4.08%. With `CC(=O)NCCNc1nc2c(-c3ccccc3)nnn2c2ccccc12` the “% Inhibition @ 10 uM” value was -1.21%. In the case of `Cc1cccc(C(=O)N(CCN(C)C)c2nc3c(Cl)cccc3s2)c1`, the “% Inhibition @ 10 uM” value is reported as -0.613%. In the case of `COc1ccc(CN(C(=O)c2ccco2)C2CCS(=O)(=O)C2)cc1` (stereo not shown), the “% Inhibition @ 10 uM” value is reported as -5.26%. In the case of `CCOc1ccc(C(=O)Nc2ccccc2CC)cc1`, the “% Inhibition @ 10 uM” value is reported as 3.82%. For `CC(=O)N(C)c1ccc(NC(=O)CCCOc2ccc(Cl)cc2Cl)cc1`, the “% Inhibition @ 10 uM” value was -4.01%. With `Cc1nc2c(=O)n(-c3ccccc3)c(=O)n(-c3ccccc3)c2n(C)c1=O` the “% Inhibition @ 10 uM” value was 2.84%. With `CCNC(=O)NC1c2ccccc2CSc2ccccc21` (stereo not shown) the “% Inhibition @ 10 uM” value was 3.91%. With `CC(C)c1ccc(C2C(C#N)=C(N)Oc3c2ccc2ccccc32)cc1` (stereo not shown) the “% Inhibition @ 10 uM” value was -2%. With `CCN1CCc2c(sc(NC(=O)Nc3ccc(Cl)c(Cl)c3)c2C(N)=O)C1` the “% Inhibition @ 10 uM” value was 2.65%. In the case of `CCOC(=O)c1c(N)n(-c2cc(Cl)cc(Cl)c2)c2nc3ccccc3nc12`, the “% Inhibition @ 10 uM” value is reported as -7.23%. `O=C(Nc1nccs1)c1cccc2c1-c1ccccc1C2=O` was tested, and the “% Inhibition @ 10 uM” value was 2.16%. In the case of `Cn1cc(C(=O)N2CCN(C3CCCCC3)CC2)c2c3ccccc3n(C)c2c1=O`, the “% Inhibition @ 10 uM” value is reported as 2.01%. In the case of `CN1C(=O)c2ccccc2C(C(=O)NCCC2=CCCCC2)C1c1cn(C)c2ccccc12` (stereo not shown), the “% Inhibition @ 10 uM” value is reported as -2.56%. With `CCCc1[nH]nc2c1C(c1c(Cl)cccc1Cl)C(C#N)=C(N)O2` (stereo not shown) the “% Inhibition @ 10 uM” value was -0.818%. `CCS(=O)(=O)C1=NSC2=NC(=O)/C(=C\c3c(C)[nH]c4ccccc34)C(=N)N21` was tested, and the “% Inhibition @ 10 uM” value was 3.48%. In the case of `CC1=NN(C(=O)CCc2ccccc2)C(O)(c2cccnc2)C1` (stereo not shown), the “% Inhibition @ 10 uM” value is reported as 3.8%. `CCN1C(=O)N/C(=C/c2cc(C)n(-c3ccncc3)c2C)C1=O` was tested, and the “% Inhibition @ 10 uM” value was -1.43%. `Cc1cc(C(F)(F)Cl)n2nc(C)c(-c3ccccc3)c2n1` was tested, and the “% Inhibition @ 10 uM” value was 9.17%. In the case of `CC(NC(=O)C1C2CCC(C2)C1C(=O)O)C1CCCO1` (stereo not shown), the “% Inhibition @ 10 uM” value is reported as -1.79%. In the case of `Cc1nn(Cc2ccc(C(=O)Nc3nc4c(C)cccc4s3)o2)c(C)c1Br`, the “% Inhibition @ 10 uM” value is reported as 2.1%. `COc1ccc(C2C(C(=O)/C=C/c3ccccc3)=C(O)C(=O)N2CCCCCC(=O)O)c(OC)c1` (stereo not shown) was tested, and the “% Inhibition @ 10 uM” value was -3.75%. `Cc1ccc(NC(=O)c2ccc(C)c(S(=O)(=O)Nc3ccccn3)c2)cc1` was tested, and the “% Inhibition @ 10 uM” value was -0.0217%. With `Cc1cc(C)c(S(=O)(=O)Nc2ccc(O)c(C(=O)O)c2)c(C)c1` the “% Inhibition @ 10 uM” value was -1.64%. `Cc1cccc(C2=Nc3c(c(=O)n(C)c(=O)n3C)C(C(F)(F)F)(C(F)(F)F)N2)c1` was tested, and the “% Inhibition @ 10 uM” value was 0.032%. `O=C(NC(C(F)(F)F)C(F)(F)F)N(Cc1ccccc1)Cc1ccccc1` was tested, and the “% Inhibition @ 10 uM” value was 0.78%. `C=CCOc1cc(Br)c(/C=C(/C#N)C(=O)NCc2ccccc2)cc1OC` was tested, and the “% Inhibition @ 10 uM” value was -1.84%. `O=[N+]([O-])c1ccc(CN2CCCC(O)C2)cc1` (stereo not shown) was tested, and the “% Inhibition @ 10 uM” value was 1.63%. For `CCCNC1=N/C(=C\c2ccccc2)C(=O)N1c1cccc(Cl)c1`, the “% Inhibition @ 10 uM” value was -4.02%. With `COCCCn1c(=O)c2sccc2n2c(CCCC(=O)NCc3ccccc3Cl)nnc12` the “% Inhibition @ 10 uM” value was -5.05%. With `O=C(CSc1nc(O)c2cnn(-c3ccc(F)cc3)c2n1)NCc1ccco1` the “% Inhibition @ 10 uM” value was -5.57%. With `CCN(CC)CCNc1nc2c(c(=O)n(C)c(=O)n2C)n1Cc1ccc(C)cc1` the “% Inhibition @ 10 uM” value was 0.161%. In the case of `O=C(CSc1nc[nH]n1)Nc1ncc(Br)cc1Br`, the “% Inhibition @ 10 uM” value is reported as -1.68%. For `CCCOCc1cc(CN2CCN(C)CC2)c(O)c2ncccc12`, the “% Inhibition @ 10 uM” value was -2.28%. With `CCN1CCN(Cc2cccnc2)CC1` the “% Inhibition @ 10 uM” value was -0.192%. `CCOc1ccc(/C=C/c2nc(C#N)c(NCc3ccco3)o2)cc1` was tested, and the “% Inhibition @ 10 uM” value was -8.25%. For `O=C(CCc1ccccc1)Nc1nnc(S(=O)(=O)N2CCOCC2)s1`, the “% Inhibition @ 10 uM” value was -1.72%. In the case of `Cc1ccc(C)c(Cn2c(CN3CCCC(C)C3)nc3c2c(=O)n(C)c(=O)n3C)c1` (stereo not shown), the “% Inhibition @ 10 uM” value is reported as -2.29%. In the case of `CCc1nn(CC(=O)NCC2CCCN2CC)c(=O)c2cc3sccc3n12` (stereo not shown), the “% Inhibition @ 10 uM” value is reported as 6.46%. `COc1ccc(C2C(=O)N(CCc3ccccc3)CC(=O)N2Cc2ccc3c(c2)OCO3)cc1` (stereo not shown) was tested, and the “% Inhibition @ 10 uM” value was -0.519%.
